Data taken from publication PMC7181131, “N-Pyrazinoyl Substituted Amino Acids as Potential Antimycobacterial Agents—the Synthesis and Biological Evaluation of Enantiomers” (Molecules, 2020).
Where two headings read alike, the source gives them in different places.

Key:
Test in all cases: microbe, parasite or virus in culture
[1] = tested on: Enterococcus faecalis CCM 4224 (ATCC 29212)
[2] = tested on: Escherichia coli CCM 3954 (ATCC 25922)
[3] = tested on: Acinetobacter baumannii DSM 30007, ATCC 19606
[4] = tested on: Pseudomonas aeruginosa CCM 3955 (ATCC 27853)
[5] = 24 h, read-out: MIC, visual detection

SMILES	MIC ([1]; 24 h, read-out: MIC EF) [µM]	MIC ([2]; 24 h, read-out: MIC EC) [µM]	MIC ([3]; 24 h, read-out: MIC ACI) [µM]	MIC ([4]; 24 h, read-out: MIC PA) [µM]	MIC [1, 5] [µg/mL]	MIC ([1]; ATCC29212|CCM4224, 24 h, read-out: MIC, spectrophotometric detection) [µg/mL]	MIC [2, 5] [µg/mL]	MIC ([2]; ATCC25922|CCM3954, 24 h, read-out: MIC, spectrophotometric detection) [µg/mL]	MIC ([3]; ATCC19606|DSM30007, 24 h, read-out: MIC, spectrophotometric detection) [µg/mL]	MIC ([3]; ATCC19606|DSM30007, 24 h, read-out: MIC, visual detection) [µg/mL]	MIC [4, 5] [µg/mL]	MIC ([4]; ATCC27853|CCM3955, 24 h, read-out: MIC, spectrophotometric detection) [µg/mL]
O=C(N[C@@H](COCc1ccccc1)C(=O)O)c1cnccn1 [PC-L-OBn-Ser, O-benzyl-N-(pyrazine-2-carbonyl)-L-serine]	> 500	> 500	> 500	> 500	–	–	–	–	–	–	–	–
CCOC(=O)[C@H](CC(C)C)NC(=O)c1cnccn1 (racemic) [PC-DL-Leu-Et, ethyl (pyrazine-2-carbonyl)leucinate]	> 500	> 500	> 500	> 500	–	–	–	–	–	–	–	–
C[C@@H](NC(=O)c1cnccn1)C(=O)O [PC-D-Ala, (pyrazine-2-carbonyl)-D-alanine]	> 500	> 500	> 500	> 500	–	–	–	–	–	–	–	–
CCOC(=O)[C@H](Cc1ccc(O)cc1)NC(=O)c1cnccn1 [PC-L-Tyr-Et, ethyl (pyrazine-2-carbonyl)-L-tyrosinate]	> 500	> 500	> 500	> 500	–	–	–	–	–	–	–	–
COC(=O)[C@H](COC(C)(C)C)NC(=O)c1cnccn1 [PC-L-OtBu-Ser-Me, methyl O-(tert-butyl)-N-(pyrazine-2-carbonyl)-L-serinate]	> 500	> 500	> 500	> 500	–	–	–	–	–	–	–	–
COC(=O)[C@@H](CO)NC(=O)c1cnccn1 [PC-D-Ser-Me, methyl (pyrazine-2-carbonyl)-D-serinate]	> 500	> 500	> 500	> 500	–	–	–	–	–	–	–	–
COC(=O)CC[C@@H](NC(=O)c1cnccn1)C(=O)OC [PC-D-Glu-diMe, dimethyl (pyrazine-2-carbonyl)-D-glutamate]	> 500	> 500	> 500	> 500	–	–	–	–	–	–	–	–
CCOC(=O)[C@H](Cc1ccccc1)NC(=O)c1cnccn1 (racemic) [PC-DL-Phe-Et, ethyl (pyrazine-2-carbonyl)phenylalaninate]	> 500	> 500	> 500	> 500	–	–	–	–	–	–	–	–
COC(=O)[C@H](NC(=O)c1cnccn1)[C@H](C)O [PC-D-Thr-Me, methyl (pyrazine-2-carbonyl)-D-threoninate]	> 500	> 500	> 500	> 500	–	–	–	–	–	–	–	–
CCOC(=O)C[C@H](NC(=O)c1cnccn1)C(=O)OCC [PC-L-Asp-diEt, diethyl (pyrazine-2-carbonyl)-L-aspartate]	> 500	> 500	> 500	> 500	–	–	–	–	–	–	–	–
C[C@H](NC(=O)c1cnccn1)C(=O)O [PC-L-Ala, (pyrazine-2-carbonyl)-L-alanine]	> 500	> 500	> 500	> 500	–	–	–	–	–	–	–	–
O=C(N[C@@H](CSCc1ccccc1)C(=O)O)c1cnccn1 [PC-L-SBn-Cys, S-benzyL-N-(pyrazine-2-carbonyl)-L-cysteine]	> 250	> 250	> 250	> 250	–	–	–	–	–	–	–	–
COC(=O)[C@H](COCc1ccccc1)NC(=O)c1cnccn1 [PC-L-OBn-Ser-Me, methyl O-benzyl-N-(pyrazine-2-carbonyl)-L-serinate]	> 250	> 250	> 250	> 250	–	–	–	–	–	–	–	–
COC(=O)[C@@H](COC(C)(C)C)NC(=O)c1cnccn1 [PC-D-OtBu-Ser-Me, methyl O-(tert-butyl)-N-(pyrazine-2-carbonyl)-D-serinate]	> 500	> 500	> 500	> 500	–	–	–	–	–	–	–	–
CCOC(=O)[C@H](C)NC(=O)c1cnccn1 [PC-L-Ala-Et, ethyl (pyrazine-2-carbonyl)-L-alaninate]	> 500	> 500	> 500	> 500	–	–	–	–	–	–	–	–
COC(=O)[C@H](CO)NC(=O)c1cnccn1 [PC-L-Ser-Me, methyl (pyrazine-2-carbonyl)-L-serinate]	> 500	> 500	> 500	> 500	–	–	–	–	–	–	–	–
COC(=O)C(NC(=O)c1cnccn1)c1ccccc1 [PC-D/L-Pgl-Me, methyl 2-phenyL-2-(pyrazine-2-carboxamido)acetate]	> 500	> 500	> 500	> 500	–	–	–	–	–	–	–	–
CCOC(=O)CNC(=O)c1cnccn1 [PC-Gly-Et, ethyl (pyrazine-2-carbonyl)glycinate]	> 500	> 500	> 500	> 500	–	–	–	–	–	–	–	–
CNC(C)C1CCC(N)C(OC2C(N)CC(N)C(OC3OCC(C)(O)C(NC)C3O)C2O)O1 (centres unmarked) [gentamicin, reference compound]	–	–	–	–	> 8	> 8	1	1	8	8	0.5	0.5
